From the supplement of paper PMC8728848
This is one part of the list.

Experiments:
Test in all cases: glycan array binding signal (z-score within array); higher = stronger binding
Conditions in all cases: glycan notation: IUPAC condensed, linker removed
[1] = target: Neu5Ac(a2-6)Gal(b1-4)GlcNAc(b1-6)[Gal(b1-3)GlcNAc(b1-3)]Gal(b1-4)Glc
Procedure, shortened: (§1)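 Columns mapping to the same glycan were averaged after glycan names were converted to IUPAC-condensed notation. The data come from 3228 arrays in the Consortium for Functional Glycomics database, limited to those with an available protein sequence. Binding is reported as a within-array Z-score averaged across arrays of one protein sequence and across linkers.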

[2] = target: Neu5Ac(a2-6)Gal(b1-4)GlcNAc(b1-6)[Gal(b1-3)]GalNAc
Procedure, shortened: as §1

[3] = target: Neu5Ac(a2-6)Gal(b1-4)GlcNAc6S
Procedure, shortened: as §1

Neu5Ac(a2-6)GalNAc = target: Neu5Ac(a2-6)GalNAc
Procedure, shortened: as §1

[4] = target: Neu5Ac(a2-6)GalNAc(b1-4)GlcNAc
Procedure, shortened: as §1

[5] = target: Neu5Ac(a2-6)GalNAc(b1-4)GlcNAc6S
Procedure, shortened: as §1

[6] = target: Neu5Ac(a2-6)GlcNAc(b1-4)GlcNAc
Procedure, shortened: as §1

[7] = target: Neu5Ac(a2-6)GlcNAc(b1-4)GlcNAc(b1-4)GlcNAc
Procedure, shortened: as §1

Neu5Ac(a2-8)Neu5Ac = target: Neu5Ac(a2-8)Neu5Ac
Procedure, shortened: as §1

[8] = target: Neu5Ac(a2-8)Neu5Ac(a2-3)Gal(b1-3)GalNAc(b1-4)[Neu5Ac(a2-3)]Gal(b1-4)Glc
Procedure, shortened: as §1

[9] = target: Neu5Ac(a2-8)Neu5Ac(a2-3)Gal(b1-3)GalNAc(b1-4)[Neu5Ac(a2-8)Neu5Ac(a2-3)]Gal(b1-4)Glc
Procedure, shortened: as §1

[10] = target: Neu5Ac(a2-8)Neu5Ac(a2-3)Gal(b1-4)Glc
Procedure, shortened: as §1

[11] = target: Neu5Ac(a2-8)Neu5Ac(a2-3)Gal(b1-4)GlcNAc
Procedure, shortened: as §1

[12] = target: Neu5Ac(a2-8)Neu5Ac(a2-3)[Gal(b1-3)GalNAc(b1-4)]Gal(b1-4)Glc
Procedure, shortened: as §1

[13] = target: Neu5Ac(a2-8)Neu5Ac(a2-3)[GalNAc(b1-4)]Gal(b1-4)Glc
Procedure, shortened: as §1

[14] = target: Neu5Ac(a2-8)Neu5Ac(a2-8)Neu5Ac
Procedure, shortened: as §1

[15] = target: Neu5Ac(a2-8)Neu5Ac(a2-8)Neu5Ac(a2-3)Gal(b1-4)Glc
Procedure, shortened: as §1

[16] = target: Neu5Ac(a2-8)Neu5Ac(a2-8)Neu5Ac(a2-3)[Gal(b1-3)GalNAc(b1-4)]Gal(b1-4)Glc
Procedure, shortened: as §1

[17] = target: Neu5Ac(a2-8)Neu5Ac(a2-8)Neu5Ac(a2-3)[GalNAc(b1-4)]Gal(b1-4)Glc
Procedure, shortened: as §1

[18] = target: Neu5Ac(a2-8)Neu5Ac(a2-8)Neu5Ac(a2-8)Neu5Ac(a2-3)[GalNAc(b1-4)]Gal(b1-4)Glc
Procedure, shortened: as §1

[19] = target: Neu5Ac(a2-8)Neu5Gc(a2-3)Gal(b1-4)GlcNAc
Procedure, shortened: as §1

[20] = target: Neu5Ac(b2-6)Gal(b1-4)GlcNAc
Procedure, shortened: as §1

Neu5Ac(b2-6)GalNAc = target: Neu5Ac(b2-6)GalNAc
Procedure, shortened: as §1

[21] = target: Neu5Ac9Ac(a2-3)Gal(b1-3)GlcNAc
Procedure, shortened: as §1

[22] = target: Neu5Ac9Ac(a2-3)Gal(b1-4)GlcNAc
Procedure, shortened: as §1

[23] = target: Neu5Ac9Ac(a2-6)Gal(b1-4)GlcNAc
Procedure, shortened: as §1

[24] = target: Neu5Gc(a2-3)Gal(b1-3)GlcNAc
Procedure, shortened: as §1

[25] = target: Neu5Gc(a2-3)Gal(b1-3)[Fuc(a1-4)]GlcNAc
Procedure, shortened: as §1

Neu5Gc(a2-3)Gal(b1-4)Glc = target: Neu5Gc(a2-3)Gal(b1-4)Glc
Procedure, shortened: as §1

[26] = target: Neu5Gc(a2-3)Gal(b1-4)GlcNAc
Procedure, shortened: as §1

[27] = target: Neu5Gc(a2-3)Gal(b1-4)GlcNAc(b1-3)Gal(b1-4)GlcNAc(b1-2)Man(a1-3)[Neu5Gc(a2-3)Gal(b1-4)GlcNAc(b1-3)Gal(b1-4)GlcNAc(b1-2)Man(a1-6)]Man(b1-4)GlcNAc(b1-4)GlcNAc
Procedure, shortened: as §1

[28] = target: Neu5Gc(a2-3)Gal(b1-4)[Fuc(a1-3)]GlcNAc
Procedure, shortened: as §1

[29] = target: Neu5Gc(a2-6)Gal(b1-4)GlcNAc
Procedure, shortened: as §1

Neu5Gc(a2-6)GalNAc = target: Neu5Gc(a2-6)GalNAc
Procedure, shortened: as §1

[30] = target: Neu5Gc(a2-8)Neu5Ac(a2-3)Gal(b1-4)GlcNAc
Procedure, shortened: as §1

[31] = target: Neu5Gc(a2-8)Neu5Gc(a2-3)Gal(b1-4)GlcNAc
Procedure, shortened: as §1

[32] = target: Neu5Gc(a2-8)Neu5Gc(a2-3)Gal(b1-4)GlcNAc(b1-3)Gal(b1-4)GlcNAc
Procedure, shortened: as §1

[33] = target: Neu5Gc(a2-8)Neu5Gc(a2-6)Gal(b1-4)GlcNAc
Procedure, shortened: as §1

[34] = target: Neu5Gc(b2-6)Gal(b1-4)GlcNAc
Procedure, shortened: as §1

B1: MUB40 (Lactobacillus reuteri) (peptide)
chain: CTAEGIKKFEGDGYELFKDNFPAGEKFDNDDTNDQFYTVIF
glycan array binding signal (z-score) [1]: -0.114 | glycan array binding signal (z-score) [2]: -0.414 | glycan array binding signal (z-score) [3]: -0.004 | glycan array binding signal (z-score) (Neu5Ac(a2-6)GalNAc): -0.329 | glycan array binding signal (z-score) [4]: 0.275 | glycan array binding signal (z-score) [5]: 2.71 | glycan array binding signal (z-score) [6]: -0.386 | glycan array binding signal (z-score) [7]: -0.383 | glycan array binding signal (z-score) (Neu5Ac(a2-8)Neu5Ac): -0.462 | glycan array binding signal (z-score) [8]: -0.669 | glycan array binding signal (z-score) [9]: -0.286 | glycan array binding signal (z-score) [10]: -0.599 | glycan array binding signal (z-score) [11]: -0.482 | glycan array binding signal (z-score) [12]: -0.27 | glycan array binding signal (z-score) [13]: -0.53 | glycan array binding signal (z-score) [14]: -0.703 | glycan array binding signal (z-score) [15]: 0.232 | glycan array binding signal (z-score) [16]: -0.348 | glycan array binding signal (z-score) [17]: -0.447 | glycan array binding signal (z-score) [18]: -0.4 | glycan array binding signal (z-score) [19]: 1.95 | glycan array binding signal (z-score) [20]: -0.375 | glycan array binding signal (z-score) (Neu5Ac(b2-6)GalNAc): -0.049 | glycan array binding signal (z-score) [21]: -0.434 | glycan array binding signal (z-score) [22]: -0.522 | glycan array binding signal (z-score) [23]: -0.242 | glycan array binding signal (z-score) [24]: -0.221 | glycan array binding signal (z-score) [25]: -0.398 | glycan array binding signal (z-score) (Neu5Gc(a2-3)Gal(b1-4)Glc): -0.38 | glycan array binding signal (z-score) [26]: 2.42 | glycan array binding signal (z-score) [27]: 2.75 | glycan array binding signal (z-score) [28]: -0.072 | glycan array binding signal (z-score) [29]: -0.043 | glycan array binding signal (z-score) (Neu5Gc(a2-6)GalNAc): 0.011 | glycan array binding signal (z-score) [30]: -0.006 | glycan array binding signal (z-score) [31]: -0.281 | glycan array binding signal (z-score) [32]: 2.42 | glycan array binding signal (z-score) [33]: -0.021 | glycan array binding signal (z-score) [34]: -0.505
